# Some of the results follow.
# B1: XL-35 (Xenopus laevis) (protein)
# chain: MLVHILLLLVTGGLSQSCDPVVIVASKNMVKQLDCDKFRNCKEIKDSNEEAQDGIYTLTSPDGISYQTFCDMTTNGGGWTLVASVHENNMAGKCTIGDRWSSQQGNRADYPEGDGNWANYNTFGSAGGATSDDYKNPGYYDIEAYNLGVWHVPNKTPLSVWRNSSLQRYRTTDGILFKHGGNLFSLYRIYPVKYGIGSCSKDSGPTVPVVYDLGSANLTASFYSPGFRSQFTPGYIQFRPINTEKAALALCPGMKMESCNVEHVCIGGGGYFPEADPRQCGDFAAYDFNGYGTKKFNSAGIEITEAAVLLFYL
# How the values were obtained:
# Experiment in all cases: glycan array binding signal (z-score within array); higher = stronger binding
# Details in all cases: glycan notation: IUPAC condensed, linker removed
# [1] = target: GlcNAc(b1-3)[GlcNAc(b1-6)]GalNAc
# Method in brief: (§1)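 From the Consortium for Functional Glycomics database, 3228 arrays were curated, keeping only those whose protein sequence was available. Binding is given as a within-array Z-score averaged across arrays sharing a protein sequence and across linkers. Negative Z-scores can be read as non-binding.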
# [2] = target: GlcNAc(b1-3)[GlcNAc(b1-6)]GlcNAc
# Method in brief: as §1
# [3] = target: GlcNAc(b1-4)Gal(b1-4)GlcNAc
# Method in brief: as §1
# GlcNAc(b1-4)GlcNAc = target: GlcNAc(b1-4)GlcNAc
# Method in brief: as §1
# [4] = target: GlcNAc(b1-4)GlcNAc(b1-4)GlcNAc
# Method in brief: as §1
# [5] = target: GlcNAc(b1-4)GlcNAc(b1-4)GlcNAc(b1-4)GlcNAc(b1-4)GlcNAc
# Method in brief: as §1
# [6] = target: GlcNAc(b1-4)GlcNAc(b1-4)GlcNAc(b1-4)GlcNAc(b1-4)GlcNAc(b1-4)GlcNAc
# Method in brief: as §1
# [7] = target: GlcNAc(b1-4)[GlcNAc(b1-6)]GalNAc
# Method in brief: as §1
# [8] = target: GlcNAc(b1-6)Gal(b1-4)GlcNAc
# Method in brief: as §1
# GlcNAc(b1-6)GalNAc = target: GlcNAc(b1-6)GalNAc
# Method in brief: as §1
# [9] = target: GlcNAc6S(b1-3)Gal(b1-4)GlcNAc
# Method in brief: as §1
# Kdn(a2-3)Gal(b1-3)GalNAc = target: Kdn(a2-3)Gal(b1-3)GalNAc
# Method in brief: as §1
# Kdn(a2-3)Gal(b1-3)GlcNAc = target: Kdn(a2-3)Gal(b1-3)GlcNAc
# Method in brief: as §1
# Kdn(a2-3)Gal(b1-4)Glc = target: Kdn(a2-3)Gal(b1-4)Glc
# Method in brief: as §1
# Kdn(a2-3)Gal(b1-4)GlcNAc = target: Kdn(a2-3)Gal(b1-4)GlcNAc
# Method in brief: as §1
# [10] = target: Kdn(a2-3)Gal(b1-4)[Fuc(a1-3)]GlcNAc
# Method in brief: as §1
# Kdn(a2-6)Gal(b1-4)GlcNAc = target: Kdn(a2-6)Gal(b1-4)GlcNAc
# Method in brief: as §1
# [11] = target: Man(a1-2)Man(a1-2)Man(a1-3)Man
# Method in brief: as §1
# [12] = target: Man(a1-2)Man(a1-2)Man(a1-3)[Man(a1-2)Man(a1-3)[Man(a1-2)Man(a1-6)]Man(a1-6)]Man(b1-4)GlcNAc(b1-4)GlcNAc
# Method in brief: as §1
# [13] = target: Man(a1-2)Man(a1-2)Man(a1-3)[Man(a1-2)Man(a1-6)[Man(a1-3)]Man(a1-6)]Man(b1-4)GlcNAc(b1-4)GlcNAc
# Method in brief: as §1
# [14] = target: Man(a1-2)Man(a1-2)Man(a1-6)[Man(a1-3)]Man
# Method in brief: as §1
# Man(a1-2)Man(a1-3)Man = target: Man(a1-2)Man(a1-3)Man
# Method in brief: as §1
# [15] = target: Man(a1-2)Man(a1-3)[Man(a1-2)Man(a1-6)]Man
# Method in brief: as §1
# [16] = target: Man(a1-2)Man(a1-3)[Man(a1-2)Man(a1-6)]Man(a1-6)[Man(a1-2)Man(a1-2)Man(a1-3)]Man
# Method in brief: as §1
# [17] = target: Man(a1-2)Man(a1-3)[Man(a1-2)Man(a1-6)]Man(a1-6)[Man(a1-2)Man(a1-2)Man(a1-3)]Man(b1-4)GlcNAc(b1-4)GlcNAc
# Method in brief: as §1
# [18] = target: Man(a1-2)Man(a1-3)[Man(a1-3)[Man(a1-6)]Man(a1-6)]Man(b1-4)GlcNAc(b1-4)GlcNAc
# Method in brief: as §1
# [19] = target: Man(a1-2)Man(a1-3)[Man(a1-6)]Man(a1-6)[Man(a1-2)Man(a1-3)]Man(b1-4)GlcNAc(b1-4)GlcNAc
# Method in brief: as §1
# [20] = target: Man(a1-2)Man(a1-6)[Man(a1-3)]Man(a1-6)[Man(a1-2)Man(a1-2)Man(a1-3)]Man
# Method in brief: as §1
# [21] = target: Man(a1-2)Man(a1-6)[Man(a1-3)]Man(a1-6)[Man(a1-2)Man(a1-2)Man(a1-3)]Man(b1-4)GlcNAc(b1-4)GlcNAc
# Method in brief: as §1
# Man(a1-3)[Man(a1-6)]Man = target: Man(a1-3)[Man(a1-6)]Man
# Method in brief: as §1
# [22] = target: Man(a1-3)[Man(a1-6)]Man(a1-6)[Man(a1-2)Man(a1-3)]Man(b1-4)GlcNAc(b1-4)GlcNAc
# Method in brief: as §1
# [23] = target: Man(a1-3)[Man(a1-6)]Man(a1-6)[Man(a1-3)]Man
# Method in brief: as §1
# [24] = target: Man(a1-3)[Man(a1-6)]Man(a1-6)[Man(a1-3)]Man(b1-4)GlcNAc(b1-4)GlcNAc
# Method in brief: as §1
# [25] = target: Man(a1-3)[Man(a1-6)]Man(b1-4)GlcNAc(b1-4)GlcNAc
# Method in brief: as §1
# [26] = target: Man(a1-3)[Man(a1-6)]Man(b1-4)GlcNAc(b1-4)[Fuc(a1-6)]GlcNAc
# Method in brief: as §1
# Man(a1-6)Man = target: Man(a1-6)Man
# Method in brief: as §1
# Man(b1-4)GlcNAc = target: Man(b1-4)GlcNAc
# Method in brief: as §1
# MurNAc(b1-4)GlcNAc = target: MurNAc(b1-4)GlcNAc
# Method in brief: as §1
binder,measurement,setting,value
B1,glycan array binding signal (z-score),[1],-0.078
same,glycan array binding signal (z-score),[2],-0.058
same,glycan array binding signal (z-score),[3],4.54
same,glycan array binding signal (z-score),GlcNAc(b1-4)GlcNAc,-0.157
same,glycan array binding signal (z-score),[4],0.158
same,glycan array binding signal (z-score),[5],-0.216
same,glycan array binding signal (z-score),[6],0.219
same,glycan array binding signal (z-score),[7],-0.295
same,glycan array binding signal (z-score),[8],-0.191
same,glycan array binding signal (z-score),GlcNAc(b1-6)GalNAc,-0.291
same,glycan array binding signal (z-score),[9],0.186
same,glycan array binding signal (z-score),Kdn(a2-3)Gal(b1-3)GalNAc,-0.017
same,glycan array binding signal (z-score),Kdn(a2-3)Gal(b1-3)GlcNAc,-0.119
same,glycan array binding signal (z-score),Kdn(a2-3)Gal(b1-4)Glc,-0.561
same,glycan array binding signal (z-score),Kdn(a2-3)Gal(b1-4)GlcNAc,0.144
same,glycan array binding signal (z-score),[10],-0.248
same,glycan array binding signal (z-score),Kdn(a2-6)Gal(b1-4)GlcNAc,-0.07
same,glycan array binding signal (z-score),[11],-0.029
same,glycan array binding signal (z-score),[12],-0.113
same,glycan array binding signal (z-score),[13],-0.09
same,glycan array binding signal (z-score),[14],-0.1
same,glycan array binding signal (z-score),Man(a1-2)Man(a1-3)Man,0.041
same,glycan array binding signal (z-score),[15],-0.108
same,glycan array binding signal (z-score),[16],-0.668
same,glycan array binding signal (z-score),[17],-0.156
same,glycan array binding signal (z-score),[18],-0.086
same,glycan array binding signal (z-score),[19],-0.092
same,glycan array binding signal (z-score),[20],-0.347
same,glycan array binding signal (z-score),[21],-0.161
same,glycan array binding signal (z-score),Man(a1-3)[Man(a1-6)]Man,-0.233
same,glycan array binding signal (z-score),[22],-0.384
same,glycan array binding signal (z-score),[23],-0.458
same,glycan array binding signal (z-score),[24],0.065
same,glycan array binding signal (z-score),[25],-0.061
same,glycan array binding signal (z-score),[26],-0.239
same,glycan array binding signal (z-score),Man(a1-6)Man,-0.215
same,glycan array binding signal (z-score),Man(b1-4)GlcNAc,0.018
same,glycan array binding signal (z-score),MurNAc(b1-4)GlcNAc,0.061

# Reference: the supplement of paper PMC8728848
